The results in this text go back to paper PMC10662374, “Structures of the interleukin 11 signalling complex reveal gp130 dynamics and the inhibitory mechanism of a cytokine variant” (Nature Communications, 2023).

Assay [1] has as its target T1, IL-11Δ10/IL-11Rα_(D1-D3)/gp130_(D1-D3) trimer (human) (UniProt P20809+Q14626+P40189). The assay can be described thus: cryo-EM structure; IL-11Δ10/IL-11Rα_(D1-D3)/gp130_(D1-D3) complex, equimolar mix, size exclusion purified in TBS pH 8.0, 0.5 mg/mL on grids; C2 symmetry, 3.5 Å; both purified.
Assay [2] deals with T1, IL-11Δ10/IL-11Rα_(D1-D3)/gp130_(D1-D3) trimer (human). As to the kind of experiment: SAXS; in-line size exclusion (Superdex 200 5/150 Increase), TBS pH 8.5, 0.2% sodium azide; fit of models with CRYSOL; both purified.
The target is the same in assay [3]. The assay can be described thus: AUC; sedimentation equilibrium at three speeds, single-species analysis (SEDPHAT), relative molecular mass M*; complexes size exclusion purified before; both purified. On the technique in general: In gel filtration, larger molecules generally elute earlier.
For assay [4] the target is unchanged. As to the kind of experiment: AUC; sedimentation velocity, 50,000 rpm, 20 °C, c(s) model with floating frictional ratio (SEDFIT); both purified.
Assay [5] shares this target. As to the kind of experiment: SEC-MALS; Zenix-C SEC-300 column, 20 mM Tris, 150 mM sodium chloride pH 8.5, ~2 mg/mL applied; both purified.
Assay [6] concerns the target IL-11FL/IL-11RαEC/gp130_(D1-D3) trimer (human) (UniProt P20809+Q14626+P40189). As to the kind of experiment: crystal structure; IL-11FL/IL-11RαEC/gp130_(D1-D3) complex, equimolar mix purified by gel filtration, crystals at 20 °C; anisotropic data to 3.8 Å, three hexamers in the asymmetric unit; both purified.
Assay [7] has as its target T2, IL-11Rα_(D1-D3) (human) (UniProt Q14626).
T2 sequence (chain, N-linked glycans (N105, N172 seen in the structures)): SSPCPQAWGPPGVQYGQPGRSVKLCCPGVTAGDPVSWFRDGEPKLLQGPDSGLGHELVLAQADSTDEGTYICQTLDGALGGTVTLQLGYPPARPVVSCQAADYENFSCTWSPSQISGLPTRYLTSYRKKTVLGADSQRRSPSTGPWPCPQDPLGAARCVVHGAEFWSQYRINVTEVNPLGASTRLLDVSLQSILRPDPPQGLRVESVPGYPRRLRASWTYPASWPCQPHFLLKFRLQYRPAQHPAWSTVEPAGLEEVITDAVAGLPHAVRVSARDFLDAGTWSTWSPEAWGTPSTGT
The assay can be described thus: cryo-EM structure; IL-11Δ10/IL-11Rα_(D1-D3)/gp130EC complex, 1.5 mg/mL, with 1–2 mM n-dodecyl β-D-maltoside, not size exclusion purified; C2 symmetry, 3.8 Å; both purified.

For assay [8], the target named is T2, IL-11Rα_(D1-D3) (human). The assay can be described thus: cryo-EM structure; IL-11Δ10/IL-11Rα_(D1-D3)/gp130_(D1-D3) complex, equimolar mix, size exclusion purified in TBS pH 8.0, 0.5 mg/mL on grids; C2 symmetry, 3.5 Å; both purified.
For assay [9], the target named is IL-11_(Δ10/W147A)/IL-11Rα_(D1-D3)/gp130_(D1-D3) trimer (human) (UniProt P20809+Q14626+P40189). The assay can be described thus: AUC; sedimentation velocity, 50,000 rpm, 20 °C, c(s) model with floating frictional ratio (SEDFIT); both purified.

Results are given in words; binding and its absence hold for the method and conditions named. Some binding calls cover weakened binding; strength is not graded here.

Turning to “IL-11Δ10/IL-11Rα_(D1-D3)/gp130_(D1-D3) trimer (from UniProt P20809 32-199; Q14626 23-319; P40189 22-325) (complex)”, the binding entry in assay [1], in [2], in [3], in assay [4] and in assay [5] was “binds” in each case.

For the molecule “IL-11FL/IL-11RαEC/gp130_(D1-D3) trimer (from UniProt P20809 22-199; Q14626 24-370; P40189 22-325) (complex)”, the binding entry in assay [6] is given as “binds”.

B1: IL-11Δ10 (ligand, human)
chain: SPDPRAELDSTVLLTRSLLADTRQLAAQLRDKFPADGDHNLDSLPTLAMSAGALGALQLPGVLTRLRADLLSYLRHVQWLRRAGGSSLKTLEPELGTLQARLDRLLRRLQLLMSRLALPQPPPDPPAPPLAPPSSAWGGIRAAHAILGGLHLTLDWAVRGLLLLKTRL
notes: numbers count on: the mature protein; also called N-terminally truncated form of IL-11; WT IL-11Δ10; not shown: His6, N-terminal, cleaved
For B1, the binding result in the assay with IL-11Rα_(D1-D3) (human) [7] and with IL-11Rα_(D1-D3) (human) [8] was “binds” in each case.

B2: IL-11_(Δ10/W147A)/IL-11Rα_(D1-D3)/gp130_(D1-D3) trimer (complex, human)
chain 1: SPDPRAELDSTVLLTRSLLADTRQLAAQLRDKFPADGDHNLDSLPTLAMSAGALGALQLPGVLTRLRADLLSYLRHVQWLRRAGGSSLKTLEPELGTLQARLDRLLRRLQLLMSRLALPQPPPDPPAPPLAPPSSAAGGIRAAHAILGGLHLTLDWAVRGLLLLKTRL
chain 2: SSPCPQAWGPPGVQYGQPGRSVKLCCPGVTAGDPVSWFRDGEPKLLQGPDSGLGHELVLAQADSTDEGTYICQTLDGALGGTVTLQLGYPPARPVVSCQAADYENFSCTWSPSQISGLPTRYLTSYRKKTVLGADSQRRSPSTGPWPCPQDPLGAARCVVHGAEFWSQYRINVTEVNPLGASTRLLDVSLQSILRPDPPQGLRVESVPGYPRRLRASWTYPASWPCQPHFLLKFRLQYRPAQHPAWSTVEPAGLEEVITDAVAGLPHAVRVSARDFLDAGTWSTWSPEAWGTPSTGT
chain 3: GELLDPCGYISPESPVVQLHSNFTAVCVLKEKCMDYFHVNANYIVWKTNHFTIPKEQYTIINRTASSVTFTDIASLNIQLTCNILTFGQLEQNVYGITIISGLPPEKPKNLSCIVNEGKKMRCEWDGGRETHLETNFTLKSEWATHKFADCKAKRDTPTSCTVDYSTVYFVNIEVWVEAENALGKVTSDHINFDPVYKVKPNPPHNLSVINSEELSSILKLTWTNPSIKSVIILKYNIQYRTKDASTWSQIPPEDTASTRSSFTVQDLKPFTEYVFRIRCMKEDGKGYWSDWSEEASGITYEDR
B2: the binding entry in assay [9] is reported as “binds weakly”.

B3: gp130EC (receptor, human, UniProt P40189 23-619, looked up)
chain: ELLDPCGYISPESPVVQLHSNFTAVCVLKEKCMDYFHVNANYIVWKTNHFTIPKEQYTIINRTASSVTFTDIASLNIQLTCNILTFGQLEQNVYGITIISGLPPEKPKNLSCIVNEGKKMRCEWDGGRETHLETNFTLKSEWATHKFADCKAKRDTPTSCTVDYSTVYFVNIEVWVEAENALGKVTSDHINFDPVYKVKPNPPHNLSVINSEELSSILKLTWTNPSIKSVIILKYNIQYRTKDASTWSQIPPEDTASTRSSFTVQDLKPFTEYVFRIRCMKEDGKGYWSDWSEEASGITYEDRPSKAPSFWYKIDPSHTQGYRTVQLVWKTLPPFEANGKILDYEVTLTRWKSHLQNYTVNATKLTVNLTNDRYLATLTVRNLVGKSDAAVLTIPACDFQATHPVMDLKAFPKDNMLWVEWTTPRESVKKYILEWCVLSDKAPCITDWQQEDGTVHRTYLRGNLAESKCYLITVTPVYADGPGSPESIKAYLKQAPPSKGPTVRTKKVGKNEAVLEWDQLPVDVQNGFIRNYTIFYRTIIGNETAVNVDSSHTEYTLSSLTSDTLYMVRMAAYTDEGGKDGPEFTFTTPKFAQGEIE
modifications: N-linked glycans (N21, N61, N135 seen in the structures)
notes: Secreted with a honeybee-melittin signal peptide; D5-D6 are not in the deposited model 8DPT; also called complete extracellular domains of gp130; D1-D6 domains of gp130; not shown: His8, N-terminal, cleaved
B3: the binding result with IL-11Rα_(D1-D3) (human) [7] was “binds”.
